Data taken from the RNAGym collection of RNA variant scans (doi:10.1093/nar/gkz1192).
Read counts are not given, so values of variants with three or more changes are uncertain.

B1: CPEB3 Ribozyme (parent)
chain: UAACAGGGGGCCACAGCAGAAGCGUUCACGUCGCAGCCCCUGUCAGAUUCUGGUGAAUCUGCGAAUUCUGCUGUAUAUCUC

Variants of: B1
Assay: self-cleavage, relative activity (ratio to wild type); higher = more cleavage; in vitro, sequencing
Summary of the method: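 Relative activity was defined as the cleaved/total read fraction for a variant divided by the same fraction for the unmutated ribozyme. CPEB3 self-cleaving ribozyme libraries were made by rounds of error-prone PCR, barcoded, and transcribed in vitro with T7 RNA polymerase for 5 hours at 37°C, and cleavage ran through transcription plus a 15 min DNase I step before EDTA. Illumina sequencing of template-switched reverse transcripts gave the reads, and DNA sequencing mapped the barcodes. Averages come from three batches, using variants with at least 5 reads.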

Variant | self-cleavage
A13U U41A U43C U76A | 0.06
A13U U26C U41A U54C U69C U72A | 0.09
A13U U26A U48G U51A U58C G73A | 0.18
C14U A56G U58C | 0.45
A13U U25C G30U U60A | 0.06
A13U G36U G73U | 0.14
A15C A28G A45U U51A A57G U60A G61U | 0.08
A15C A28U U54C | 0.22
A13U G36A U54C U66A U67C | 0.11
A15C A18G A20G U41A U48C U78C | 0.78
A13U U49C U54C U60C U72C | 0.37
C14A A21G A35G U43C A45U A56G | 0.12
C14U U25G A35U A75G | 0.18
C14A A15G C40U U43C U51C A64U U80C | 0.1
C14A A15C U43C U51A | 0.24
A13U U31C C44A A45G U60A | 0.13
A13U U41C A75G U78A | 1.05
A13U U31C G33U U48C U72C | 0.06
A13U U54G A57C U60C | 0.09
A13U U26C A56G A57G U60C | 0.08
C14A A35G U66C | 1.28

Variant | self-cleavage
A13U U48C A57U U72C U78A | 0.87
A15C A28G A65G U67C A77U | 0.17
C14A U41C U43C U51A A57U A65G | 0.09
A13U U25C A28G | 0.24
C14U C40U G70A U72G U80A | 0.38
A13U U43C A64G A65G | 0.19
A15C A35G U66C | 0.96
C14U A15G A56G U80C | 1.19
C14U U66C U72C U74A | 0.66
C14U U60A U69C U72C U74A A75G | 0.3
C14A A35U U51A U60A | 0.16
A13U U31C U67C | 0.28
C14U U26C U43C U60C A64G U67C U72A | 0.11
C14A G33A A35U U54C A64C U78C | 0.05
C14A A45G A56G A64U U72A | 0.27
C14U A21G U25C A35G U49C G55U U72C | 0.07
A13U U43C A64G U66C | 0.43
C14U U43C U76A | 0.66
C14U U49A U72C | 0.89
A13U U41C C79U | 1.23
C14U U26C G36U U72C | 0.06

Variant | self-cleavage
A15C A35G U51C | 1.02
A13U U43C U48C | 0.08
C14U U43C U78C C79A | 1.21
C14U A20G C29A A35C U72C U80C | 0.15
A15C A35U U49C | 0.15
C14A A18U U41C A47G U49C U67A | 0.14
A13U U25A A28U G33A U69C U72C U76C | 0.07
A13U U41A A64G | 0.15
A15C A35C U72C | 1.12
A13U U25A A45G | 0.08
C14U A45U A56U A65G | 0.06
A13U G36A A57G | 0.14
C14U G33C G46U U54C A57G | 0.06
C14U A21G A57G G70A | 0.11
C14U U25A U72C | 0.38
C14G C23A U48C | 0.07
A13U U25C U69A | 0.38
A13U U26A A28U A56G | 0.63
A13U U67C C68U | 0.22
C14A A28G A35U | 0.3
A13U U43C U66C C68U | 0.14

Variant | self-cleavage
C14A U51C U58C U66C U78C | 0.25
C14U U26C A47G | 0.56
A13U G36A U58G | 0.16
A13U U25A U54C | 0.11
A15C A35G G63U U69C U74A | 0.22
A13U U26A U43C G53U A57G | 0.09
C14U U43C U60A U74C U78A | 0.45
C14U U25C A65G U72A | 0.14
A13U U41C A45C A56G A64G | 0.16
C14U U26G U74A | 0.3
A13U U31C U43C U49C U69C | 0.06
A13U U67A U78C | 0.7
A13U G33C U49C U54C U58C U69A | 0.06
A13U U48C U54C U58A U60A U80C | 0.07
A15C A28U U41A U43C U49C U58C | 0.18
A13U U43A A56U A64G | 0.63
A15C A35G U43C U60A C81A | 0.74
A13U U41C U54C A65G | 0.49
A13U U31G A35U U54C U58C U78C | 0.09
A13U U26C A28U U54C A56U U60C U72A | 0.1
